Data reported in PubChem BioAssay (NCATS).
Where “and” joins values, the source holds several entries; their conditions need not be identical. Equal values may be shown once. This list was built around the results that the source calls inconclusive (neither active nor inactive); the mix of calls is not that of the screen. Where the call is inconclusive, the potency comes from a doubtful curve fit. For part of these data: A note “side channel” means that the fit belongs to a control or component signal, not to the main read-out. Calls of active or inactive are those of the source. Unless noted, calls come from the whole dose curve; as a rule, active = well fitted curve in the direction sought with a large enough effect; inconclusive = small, poorly fitted or top-dose-only effect, or another doubt; inactive = no such curve, though single readings can be large; an effect the other way counts as inactive or inconclusive.

target: 3',5'-cyclic-AMP phosphodiesterase 4B (Homo sapiens) (UniProt Q07343); assay: qHTS Assay for Inhibitors of PDE-IV (AID 607; active = well fitted activation curve with a large enough effect in the main read-out, with a control signal flat, not every such curve was filed as active; inconclusive = small, poorly fitted or top-dose-only effect, or effect the other way, or a change in a side signal); conditions: HEK293 ACTOne CNG channel cells, membrane potential fluorescence; activation (PDE inhibition): at 22.9 µM (top of the series)
Sequence of UniProt Q07343 (Q07343 whole entry, looked up): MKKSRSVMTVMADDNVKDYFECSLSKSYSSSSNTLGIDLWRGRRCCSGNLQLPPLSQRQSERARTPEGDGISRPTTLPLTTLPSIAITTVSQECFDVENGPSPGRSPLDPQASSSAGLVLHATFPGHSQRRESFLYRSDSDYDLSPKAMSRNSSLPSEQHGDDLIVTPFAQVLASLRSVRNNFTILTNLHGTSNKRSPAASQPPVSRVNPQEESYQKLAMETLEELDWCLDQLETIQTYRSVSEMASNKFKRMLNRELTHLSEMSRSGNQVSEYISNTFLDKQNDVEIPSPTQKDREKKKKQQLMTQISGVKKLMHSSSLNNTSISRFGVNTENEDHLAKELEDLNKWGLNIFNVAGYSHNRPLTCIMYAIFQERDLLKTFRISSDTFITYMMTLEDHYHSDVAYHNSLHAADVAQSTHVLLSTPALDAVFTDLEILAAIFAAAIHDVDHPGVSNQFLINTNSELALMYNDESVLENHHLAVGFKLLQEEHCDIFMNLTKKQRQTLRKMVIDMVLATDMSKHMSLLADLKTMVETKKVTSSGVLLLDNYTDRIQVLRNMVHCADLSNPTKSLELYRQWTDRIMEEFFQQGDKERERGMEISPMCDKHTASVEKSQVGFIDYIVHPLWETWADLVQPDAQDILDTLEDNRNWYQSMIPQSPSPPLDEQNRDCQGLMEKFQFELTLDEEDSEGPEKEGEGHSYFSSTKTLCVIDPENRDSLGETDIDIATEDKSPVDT
Outline: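 The readout is membrane depolarisation from a cAMP-sensing CNG channel, detected with a potential dye at ex 535/em 590. Cells were HEK293-derived (endogenous PDE-IV) at 1000 cells/well, titrated up to 22.9 uM final.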
Potency is the fitted concentration of half-maximal effect; tags give direction and shape of the fitted curve or compound fluorescence and quenching.

Row | SMILES | Potency
1 | CN(Cc1ccco1)c1ncnc2ccc(-c3ccccc3Cl)cc12 | inconclusive: 10 µM [rising, partial curve]
2 | COc1cccc(-c2nc(NCc3ccc(OC)cc3OC)c3ccccc3n2)c1 | inconclusive: 5.01 µM [activator, partial curve]
3 | O=C(Nc1ccccc1)N1CCCC2(CCN(C(=O)c3cc(C(F)(F)F)cc(C(F)(F)F)c3)CC2)C1 | inconclusive: 12.6 µM [activator, partial curve]
4 | COc1ccccc1CNc1nc(-c2c(C)noc2C)nc2ccccc12 | inconclusive: 10 µM [activator, partial curve]
5 | C[C@H]1C=C2C=C[C@H](C)[C@H](CC[C@@H]3C[C@@H](O)CC(=O)O3)[C@H]2[C@@H](OC(=O)[C@@H](C)CCO)C1 | inconclusive: 9.51 µM [activator, partial curve]
6 | COc1ccccc1CNc1ccnc(-c2ccc3c(c2)OCO3)n1 | inconclusive: 12.6 µM [activator, partial curve]

tested on: not listed separately; assay: qHTS Assay for Identification of Small Molecule Agonists for Hypoxia Response Element Signaling Pathway (AID 914; active = well fitted activation curve with a large enough effect in the signal ratio, with a control signal flat, not every such curve was filed as active; inconclusive = small, poorly fitted or top-dose-only effect, or effect the other way, or a change in a side signal; the % refers to the signal ratio; for activation: top concentration of the series differs between compounds; % of control where 0% means no effect); conditions: ME-180 (cervical carcinoma) HRE-bla reporter, beta-lactamase ratio, CoCl2, 17 h; activation: stronger effect = higher value
Outline: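 Cells were plated overnight, pin-dosed with compound in a titration series, co-stimulated with EC50 CoCl2 and incubated 17 hours at 37 degrees Celsius. CCF4 substrate was then loaded, and AC50 values came from the 460nm/530nm ratio.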

Row | SMILES | Potency | activation
7 | COC(=O)C1CCN(c2nc3ccccc3nc2C(C#N)C(=O)NCCc2ccccc2)CC1 (stereo not given) | inconclusive: 7.94 µM [fluorescent, partial curve] | 
8 | CN(Cc1ccco1)c1ncnc2ccc(-c3ccccc3Cl)cc12 |  | inconclusive: -27.4%
9 | O=C(/C=N/O)NCCCN1CCOCC1 | inconclusive: 0.501 µM [activator, partial curve] | 
10 | COc1ccc(-c2nc3cnc(Nc4cccc(OC)c4)nc3n(Cc3cccs3)c2=O)cc1 | inconclusive: 2.51 µM [fluorescent, side channel, partial curve] | 

target: Tyrosyl-DNA phosphodiesterase 1 (Homo sapiens) (UniProt Q9NUW8); assay: Confirmation Assay for Inhibitors of Tyrosyl-DNA Phosphodiesterase (TDP1) (AID 489007); conditions: recombinant human TDP1 enzymatic activity, dose-response; note: nearly all actives have a fitted effect of over 40% in size
Sequence of UniProt Q9NUW8 (Q9NUW8 whole entry, looked up): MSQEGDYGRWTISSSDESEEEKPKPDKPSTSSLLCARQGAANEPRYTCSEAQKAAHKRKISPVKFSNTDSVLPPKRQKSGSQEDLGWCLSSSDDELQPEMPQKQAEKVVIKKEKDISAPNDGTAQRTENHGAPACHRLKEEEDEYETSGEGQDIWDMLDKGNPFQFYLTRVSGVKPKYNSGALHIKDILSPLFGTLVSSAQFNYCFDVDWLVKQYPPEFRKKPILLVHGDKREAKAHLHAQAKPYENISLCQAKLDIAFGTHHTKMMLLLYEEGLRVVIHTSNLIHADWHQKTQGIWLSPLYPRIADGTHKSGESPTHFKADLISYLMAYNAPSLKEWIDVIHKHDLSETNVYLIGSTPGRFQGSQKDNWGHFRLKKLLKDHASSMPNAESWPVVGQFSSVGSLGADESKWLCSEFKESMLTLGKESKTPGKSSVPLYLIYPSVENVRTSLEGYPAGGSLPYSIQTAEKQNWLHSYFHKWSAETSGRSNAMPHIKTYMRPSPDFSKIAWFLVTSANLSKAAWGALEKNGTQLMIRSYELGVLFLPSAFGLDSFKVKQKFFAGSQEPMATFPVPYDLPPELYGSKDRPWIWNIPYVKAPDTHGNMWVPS
Outline: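 Tdp1 1 nM + cpd, 15 min RT; add biotin/phosphotyrosine-FITC oligo 15 nM, 5 min RT; add AS donor/acceptor beads 10 ug/ml, 10 min RT; read AlphaScreen. No-enzyme wells = max signal.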

Row | SMILES | Potency
11 | O=C(CSc1n[nH]c(=O)[nH]c1=O)Nc1ccc2c(c1)C(=O)c1ccccc1C2=O | inconclusive: 6.31 µM [inhibitor, full curve]
12 | Cc1ccc2c(CC(=O)OCc3cc(=O)n4c(n3)sc3ccccc34)coc2c1 | inconclusive: 79.4 µM [inhibitor, partial curve]
13 | COc1cc(/C=C/[N+](=O)[O-])ccc1OCc1cccc(C(=O)O)c1 | active: 79.4 µM

target: Ubiquitin carboxyl-terminal hydrolase 1 (Homo sapiens) (UniProt O94782); assay: Inhibitors of USP1/UAF1: Pilot qHTS (AID 504865); conditions: purified USP1/UAF1, Ub-rhodamine cleavage fluorescence; series mostly up to 54.9 µM;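 note: rhodamine fluorescence freed from ubiquitin-rhodamine substrate followed over time; nearly all actives have a fitted effect of over 35% in size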
Sequence of UniProt O94782 (O94782 whole entry, looked up): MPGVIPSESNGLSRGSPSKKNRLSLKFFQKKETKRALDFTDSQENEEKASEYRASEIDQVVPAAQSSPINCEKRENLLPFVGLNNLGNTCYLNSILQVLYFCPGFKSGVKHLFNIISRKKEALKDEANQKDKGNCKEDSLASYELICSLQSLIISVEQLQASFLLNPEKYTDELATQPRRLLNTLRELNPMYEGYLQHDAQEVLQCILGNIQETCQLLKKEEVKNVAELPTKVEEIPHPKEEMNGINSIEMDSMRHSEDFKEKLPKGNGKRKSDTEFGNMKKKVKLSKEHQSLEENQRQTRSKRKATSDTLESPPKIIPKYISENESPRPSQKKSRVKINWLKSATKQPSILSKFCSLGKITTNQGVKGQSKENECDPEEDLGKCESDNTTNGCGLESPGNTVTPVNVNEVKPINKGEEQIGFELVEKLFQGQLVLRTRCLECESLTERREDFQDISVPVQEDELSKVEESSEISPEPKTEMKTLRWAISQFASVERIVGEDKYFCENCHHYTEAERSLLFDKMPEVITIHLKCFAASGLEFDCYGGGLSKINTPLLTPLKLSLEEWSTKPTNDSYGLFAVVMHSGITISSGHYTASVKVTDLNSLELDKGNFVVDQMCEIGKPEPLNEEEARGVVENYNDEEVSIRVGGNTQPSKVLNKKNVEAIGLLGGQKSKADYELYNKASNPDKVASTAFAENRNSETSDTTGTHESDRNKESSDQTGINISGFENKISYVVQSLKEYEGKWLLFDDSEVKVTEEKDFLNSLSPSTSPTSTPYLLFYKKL
Outline: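 In 50mM HEPES pH 7.8 containing 0.5mM EDTA, 1mM TCEP, 0.1 mg/ml BSA and 0.01% Tween-20, 1nM USP1/UAF1 is exposed to compound for 15 min, then Ub-Rho (150nM final) is added and fluorescence is read over time.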

Row | SMILES | Potency
14 | COc1cccc(-c2nc(NCc3ccc(OC)cc3OC)c3ccccc3n2)c1 | inconclusive: 39.8 µM [inhibitor, partial curve, poor fit]
15 | COc1ccccc1CNc1nc(-c2c(C)noc2C)nc2ccccc12 | active: 28.2 µM
16 | COC(=O)CC1C2(C)CC34OC5(C)O[C@@]6(C7/C(=C(/OC)C(C)C)C(=O)OC(c8ccoc8)[C@@]7(C)C(OC(=O)C(C)C)C(OC)[C@]6(O5)[C@@]13C)C(OC)[C@]4(OC)C2OC(C)=O (stereo not given in full) | inconclusive: 25.1 µM [inhibitor, partial curve]
17 | C[C@H]1C=C2C=C[C@H](C)[C@H](CC[C@@H]3C[C@@H](O)CC(=O)O3)[C@H]2[C@@H](OC(=O)[C@@H](C)CCO)C1 | inconclusive: 50.1 µM [inhibitor, partial curve, poor fit]
18 | CC(=O)OC1CCC23CC1(C)CCC2C(C)(C)CC3OC(C)=O (stereo not given) | inconclusive: 56.2 µM [inhibitor, partial curve, poor fit]
19 | CC(=O)Oc1c2c(c3c(c1CC=C(C)C)O[C@@]14C(=CC5CC1C(C)(C)OC4(C/C=C(\C)C(=O)O)C5=O)C3=O)OC(C)(CCC=C(C)C)C=C2 (stereo not given in full) | active: 31.6 µM
20 | COC(=O)[C@@H]1C2CC3c4[nH]c5cc(OC)ccc5c4CCN3CC2C[C@H](OC(=O)c2cc(OC)c(OC)c(OC)c2)C1OC (stereo not given in full) | inconclusive: 50.1 µM [inhibitor, partial curve]
21 | COc1ccccc1CNc1ccnc(-c2ccc3c(c2)OCO3)n1 | inconclusive: 44.7 µM [inhibitor, partial curve]
22 | CC(=O)OC1CC[C@]2(C)C(CC(OC(C)=O)[C@@]3(C)C4=CC(=O)OC(c5ccoc5)[C@]4(C)CCC23)C1(C)C (stereo not given in full) | inconclusive: 50.1 µM [inhibitor, partial curve] and inconclusive: 44.7 µM [inhibitor, partial curve, poor fit] and inconclusive: 22.4 µM [inhibitor, partial curve, poor fit]

target: DNA polymerase iota (Homo sapiens) (UniProt Q9UNA4); assay: qHTS for Inhibitors of Polymerase Iota: Confirmatory Assay for Cherry-picked Compounds (AID 720496); conditions: Pol iota primer extension, TAMRA/BHQ fluorescence
Sequence of UniProt Q9UNA4 (Q9UNA4 whole entry, looked up): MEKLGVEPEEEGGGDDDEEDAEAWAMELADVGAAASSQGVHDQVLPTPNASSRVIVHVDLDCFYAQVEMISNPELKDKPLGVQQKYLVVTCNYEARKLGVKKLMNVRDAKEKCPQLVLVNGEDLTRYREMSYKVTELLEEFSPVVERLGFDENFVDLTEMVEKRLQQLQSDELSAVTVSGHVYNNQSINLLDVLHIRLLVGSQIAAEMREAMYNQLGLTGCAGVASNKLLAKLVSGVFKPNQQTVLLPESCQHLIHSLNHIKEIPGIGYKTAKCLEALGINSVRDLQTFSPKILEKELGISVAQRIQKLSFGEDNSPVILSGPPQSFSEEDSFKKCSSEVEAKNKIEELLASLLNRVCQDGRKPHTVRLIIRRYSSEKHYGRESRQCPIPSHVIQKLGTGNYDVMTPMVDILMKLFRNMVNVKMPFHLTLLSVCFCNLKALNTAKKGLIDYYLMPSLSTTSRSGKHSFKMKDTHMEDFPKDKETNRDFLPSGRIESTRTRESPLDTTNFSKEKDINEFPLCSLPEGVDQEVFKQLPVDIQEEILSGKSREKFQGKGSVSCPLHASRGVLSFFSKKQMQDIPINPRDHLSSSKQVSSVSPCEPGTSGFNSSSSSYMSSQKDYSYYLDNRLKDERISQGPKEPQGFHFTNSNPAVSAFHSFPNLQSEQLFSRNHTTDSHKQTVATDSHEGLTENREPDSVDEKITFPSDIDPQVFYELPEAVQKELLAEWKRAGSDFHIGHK
Outline: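 Buffer-only wells, without enzyme, serve as negative control. Test wells hold 10 nM Pol iota preincubated 15 min with compound before 50 nM final fluorogenic DNA substrate is added; signal is read at 0 and 10 min.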

Row | SMILES | Potency
23 | C=CCc1cc(/C=C/c2nc(O)c([N+](=O)[O-])c(=O)[nH]2)cc(OC)c1O | inconclusive: 75.2 µM [inhibitor, partial curve]
24 | O=C(O)c1ccccc1NS(=O)(=O)c1ccc(NN=Cc2ccccc2F)c([N+](=O)[O-])c1 | inconclusive: 47.4 µM [inhibitor, partial curve]
25 | O=C(N/N=C/c1cc(Cl)c(O)c(Cl)c1)c1cc2c(ccc3ccccc32)o1 | inconclusive: 75.2 µM [inhibitor, partial curve]
26 | O=C(COC(=O)c1c2c(nc3ccccc13)/C(=C/c1ccco1)CC2)NC1CCCC1 | active: 13.4 µM
27 | O=C(O)c1ccc(COc2ccc3ccccc3c2/C=C2/NC(=O)N(Cc3ccc(F)cc3)C2=O)cc1 | inconclusive: 84.4 µM [inhibitor, partial curve]
28 | CCCCCCNC(=O)c1cc(-c2ccco2)nc2ccccc12 | active: 26.7 µM
29 | O=C(O)CCN1C(=O)/C(=C\c2cccc(Oc3ccccc3)c2)SC1=S | inconclusive: 84.4 µM [inhibitor, single point]
30 | O=C1C=CC(=O)c2c(O)c(N3CCN(CCO)CC3)c(Cl)c(O)c21 | active: 3.36 µM
